The record followed here is article PMC9911399, “Two distinct binding modes provide the RNA-binding protein RbFox with extraordinary sequence specificity”.

B1: CCAUCAA (DNA:RNA)
RNA: GGGAGACCGGAAUUCAGAUUGUCCCCAUCAAUUAAAUCCCGUCGUAGCCACCA
DNA 1: CAATCTGAATTCCGGTCTCCC
DNA 2: TGGTGGCTACGACGGGATT
B2: GCUGUUC (DNA:RNA)
RNA: B1 RNA with C25G, A27U, U28G, C29U, A30U, A31C
DNA 1: CAATCTGAATTCCGGTCTCCC
DNA 2: TGGTGGCTACGACGGGATT
B3: UUUUCUU (DNA:RNA)
RNA: B1 RNA with C25U, C26U, A27U, A30U, A31U
DNA 1: CAATCTGAATTCCGGTCTCCC
DNA 2: TGGTGGCTACGACGGGATT
B4: UUAGUAU (DNA:RNA)
RNA: B1 RNA with C25U, C26U, U28G, C29U, A31U
DNA 1: CAATCTGAATTCCGGTCTCCC
DNA 2: TGGTGGCTACGACGGGATT
B5: UCCCGGG (DNA:RNA)
RNA: B1 RNA with C25U, A27C, U28C, C29G, A30G, A31G
DNA 1: CAATCTGAATTCCGGTCTCCC
DNA 2: TGGTGGCTACGACGGGATT
B6: GCUCCCC (DNA:RNA)
RNA: B1 RNA with C25G, A27U, U28C, A30C, A31C
DNA 1: CAATCTGAATTCCGGTCTCCC
DNA 2: TGGTGGCTACGACGGGATT
B7: CCCCACC (DNA:RNA)
RNA: B1 RNA with A27C, U28C, C29A, A30C, A31C
DNA 1: CAATCTGAATTCCGGTCTCCC
DNA 2: TGGTGGCTACGACGGGATT
B8: AGACAUA (DNA:RNA)
RNA: B1 RNA with C25A, C26G, U28C, C29A, A30U
DNA 1: CAATCTGAATTCCGGTCTCCC
DNA 2: TGGTGGCTACGACGGGATT
B9: CUACUUA (DNA:RNA)
RNA: B1 RNA with C26U, U28C, C29U, A30U
DNA 1: CAATCTGAATTCCGGTCTCCC
DNA 2: TGGTGGCTACGACGGGATT
B10: GAAAGUU (DNA:RNA)
RNA: B1 RNA with C25G, C26A, U28A, C29G, A30U, A31U
DNA 1: CAATCTGAATTCCGGTCTCCC
DNA 2: TGGTGGCTACGACGGGATT
B11: UCUGCGA (DNA:RNA)
RNA: B1 RNA with C25U, A27U, U28G, A30G
DNA 1: CAATCTGAATTCCGGTCTCCC
DNA 2: TGGTGGCTACGACGGGATT
B12: AUGAACU (DNA:RNA)
RNA: GGGAGACCGGAAUUCAGAUUGUCCAUGAACUUUAAAUCCCGUCGUAGCCACCA
DNA 1: CAATCTGAATTCCGGTCTCCC
DNA 2: TGGTGGCTACGACGGGATT
B13: GCACUGU (DNA:RNA)
RNA: B1 RNA with C25G, U28C, C29U, A30G, A31U
DNA 1: CAATCTGAATTCCGGTCTCCC
DNA 2: TGGTGGCTACGACGGGATT
B14: UAUAUUA (DNA:RNA)
RNA: B12 RNA with A25U, U26A, G27U, A29U, C30U, U31A
DNA 1: CAATCTGAATTCCGGTCTCCC
DNA 2: TGGTGGCTACGACGGGATT
B15: GAGUAGG (DNA:RNA)
RNA: B12 RNA with A25G, U26A, A28U, C30G, U31G
DNA 1: CAATCTGAATTCCGGTCTCCC
DNA 2: TGGTGGCTACGACGGGATT
B16: UAACCGG (DNA:RNA)
RNA: B1 RNA with C25U, C26A, U28C, A30G, A31G
DNA 1: CAATCTGAATTCCGGTCTCCC
DNA 2: TGGTGGCTACGACGGGATT
B17: UAGUAGU (DNA:RNA)
RNA: B12 RNA with A25U, U26A, A28U, C30G
DNA 1: CAATCTGAATTCCGGTCTCCC
DNA 2: TGGTGGCTACGACGGGATT
B18: UUGGGCG (DNA:RNA)
RNA: B12 RNA with A25U, A28G, A29G, U31G
DNA 1: CAATCTGAATTCCGGTCTCCC
DNA 2: TGGTGGCTACGACGGGATT
B19: UCGUUAC (DNA:RNA)
RNA: B1 RNA with C25U, A27G, C29U, A31C
DNA 1: CAATCTGAATTCCGGTCTCCC
DNA 2: TGGTGGCTACGACGGGATT
B20: GUACGUC (DNA:RNA)
RNA: B12 RNA with A25G, G27A, A28C, A29G, C30U, U31C
DNA 1: CAATCTGAATTCCGGTCTCCC
DNA 2: TGGTGGCTACGACGGGATT
B21: ACCUCCA (DNA:RNA)
RNA: B1 RNA with C25A, A27C, A30C
DNA 1: CAATCTGAATTCCGGTCTCCC
DNA 2: TGGTGGCTACGACGGGATT
B22: CUAAACA (DNA:RNA)
RNA: B12 RNA with A25C, G27A, U31A
DNA 1: CAATCTGAATTCCGGTCTCCC
DNA 2: TGGTGGCTACGACGGGATT
B23: CCACAUU (DNA:RNA)
RNA: B1 RNA with U28C, C29A, A30U, A31U
DNA 1: CAATCTGAATTCCGGTCTCCC
DNA 2: TGGTGGCTACGACGGGATT
B24: AAUACGC (DNA:RNA)
RNA: B12 RNA with U26A, G27U, A29C, C30G, U31C
DNA 1: CAATCTGAATTCCGGTCTCCC
DNA 2: TGGTGGCTACGACGGGATT
B25: UGGCCAU (DNA:RNA)
RNA: B12 RNA with A25U, U26G, A28C, A29C, C30A
DNA 1: CAATCTGAATTCCGGTCTCCC
DNA 2: TGGTGGCTACGACGGGATT
B26: GGCCAUU (DNA:RNA)
RNA: B12 RNA with A25G, U26G, G27C, A28C, C30U
DNA 1: CAATCTGAATTCCGGTCTCCC
DNA 2: TGGTGGCTACGACGGGATT
B27: UAACACA (DNA:RNA)
RNA: B12 RNA with A25U, U26A, G27A, A28C, U31A
DNA 1: CAATCTGAATTCCGGTCTCCC
DNA 2: TGGTGGCTACGACGGGATT
B28: CAAUCAA (DNA:RNA)
RNA: B1 RNA with C26A
DNA 1: CAATCTGAATTCCGGTCTCCC
DNA 2: TGGTGGCTACGACGGGATT
B29: UCUGAUU (DNA:RNA)
RNA: B12 RNA with A25U, U26C, G27U, A28G, C30U
DNA 1: CAATCTGAATTCCGGTCTCCC
DNA 2: TGGTGGCTACGACGGGATT
B30: GGACAUA (DNA:RNA)
RNA: B1 RNA with C25G, C26G, U28C, C29A, A30U
DNA 1: CAATCTGAATTCCGGTCTCCC
DNA 2: TGGTGGCTACGACGGGATT
B31: UCGCAUC (DNA:RNA)
RNA: B12 RNA with A25U, U26C, A28C, C30U, U31C
DNA 1: CAATCTGAATTCCGGTCTCCC
DNA 2: TGGTGGCTACGACGGGATT

Positions count from the first letter of the chain named. Some of the results follow.

The target in the assay is T1, RBFOX1 RRM RbFoxmut (Fox-RRM*) (Homo sapiens, UniProt Q9NWB1 109-208, R118D;E147R;N151S;E152T).
T1 sequence: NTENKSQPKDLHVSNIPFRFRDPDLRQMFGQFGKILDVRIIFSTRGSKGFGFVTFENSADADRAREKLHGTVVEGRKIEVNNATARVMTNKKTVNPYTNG
Nature of the assay: EMSA; HiTS-Eq, 1 nM pool, 10 min; buffer printed only for the single-RNA assays: 10 mM Tris pH 7.5, 150 mM NaCl, 3.4 mM EDTA, 0.001% NP-40, 30 C. To be noted: tags: His6 N-terminal (pET28a); label: 5' 32P. An outline of the steps: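 These values rest on relative association constants, computed from read-count changes of each RNA species versus the control reaction and normalised to the cognate motif. Reads came from free RNA recovered by 8% native PAGE after purified RbFox RRM (wild type or mutant) at increasing concentrations was equilibrated for 10 min in 50 µL with 1 nM of a 5′-radiolabelled pool with 7 randomized nucleotides and DNA-annealed flanks.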
Background: Mobility shift assays separate free from complexed probe on a gel.
With B1, the binding signal is 0.104 KA relative to UGCAUGU.
Consider B2, for which the binding signal is 0.0841 KA relative to UGCAUGU.
Next, B3: 0.0775 KA relative to UGCAUGU; B4: 0.137 KA relative to UGCAUGU; B5: 0.0819 KA relative to UGCAUGU.
Next, B6: 0.0605 KA relative to UGCAUGU.
As to B7, the binding signal was 0.0828 KA relative to UGCAUGU.
For B8 the value was 0.0818 KA relative to UGCAUGU.
Consider B9, for which the binding signal is 0.162 KA relative to UGCAUGU.
For B10, the binding signal was 0.0785 KA relative to UGCAUGU.
For B11 the value was 0.11 KA relative to UGCAUGU; for B12, 0.114 KA relative to UGCAUGU; for B13, 0.102 KA relative to UGCAUGU.
Turning to B14, the binding signal was 0.133 KA relative to UGCAUGU.
For B15 the value was 0.0977 KA relative to UGCAUGU; for B16, 0.0583 KA relative to UGCAUGU; for B17, 0.121 KA relative to UGCAUGU.
As for B18, the binding signal is 0.131 KA relative to UGCAUGU.
On to B19, for which the binding signal is 0.0803 KA relative to UGCAUGU.
For B20 the value was 0.116 KA relative to UGCAUGU.
For B21 the value was 0.0758 KA relative to UGCAUGU; for B22, 0.0796 KA relative to UGCAUGU.
For B23 the value was 0.109 KA relative to UGCAUGU.
Turning to B24, the binding signal is 0.104 KA relative to UGCAUGU.
On to B25, for which the binding signal was 0.089 KA relative to UGCAUGU.
With B26, the binding signal was 0.0688 KA relative to UGCAUGU.
As for B27, the binding signal is 0.0818 KA relative to UGCAUGU.
For B28 the value was 0.0625 KA relative to UGCAUGU; for B29, 0.0624 KA relative to UGCAUGU.
Next, B30: 0.0852 KA relative to UGCAUGU.
B31: the binding signal is 0.597 KA relative to UGCAUGU.
